First the molecules themselves.
B1: LINE1-mini (parent)
chain: GGCAGAGCUCAACACAGCGUGGCAAAGUGGCUGUGGCUAGACUGCC

Read counts are not given, so values of variants with three or more changes are uncertain.

Variants of B1 are the subject of the data set. Put plainly: self-cleavage, relative activity (ratio to wild type); higher = more cleavage; in vitro, sequencing; the parent is a self-cleaving ribozyme.
On to GGCAGAGCUCAACACAGCGAGGCAAAGUGGAUGUGGCUAGACUGAC [U20A C31A C45A], for which the self-cleavage is 0.06.
The same measure for GGCAGAGCUCAACACAGCGAGGCAAAGUGACUGUGGCUAGAGUGCC [U20A G30A C42G]: 0.01.
As to GGCAGAGCUCAACACAGCGAGUCAAAGUGGCUGUGGCUAGACUACC [U20A G22U G44A], the self-cleavage was 0.08.
The same measure for GGCAGAGCUCAACACAGCGAGGCAAAGUAGAUGUACCUAGACUGCC [U20A G29A C31A G35A G36C]: 0.1; for GGCAGAGCUCAACACAGCGCGGCACAGCGGCUGUGGCUAGACUGCC [U20C A25C U28C]: 0.63; for GGCAGAGCUCAACACAGCGAGGCAAAGUGGCUUUGGCUAUACUGCC [U20A G33U G40U]: 0.1.
As for GGCAGAGCUCAACACAGCGCGGCAUAGUGGCUGUGGCUAGACUGAC [U20C A25U C45A], the self-cleavage came out at 0.12.
The same measure for GGCAGAGCUCAACACAGCGAGGCAAAGUGGUCGUGGCUAGACUGCC [U20A C31U U32C]: 0.21; for GGCAGAGCUCAACACAGCGCGUCAAAGUAGCUGUGGCUAGACUGCC [U20C G22U G29A]: 0.99; for GGCAGAGCUCAACACAGCGAGGCAAAGUGGCUGUGGUAUGACUGCU [U20A C37U U38A A39U C46U]: 0.02.
As for GGCAGAGCUCAACACAGCGCUGCAAAGUGGCUGUGGCUAGACUGCG [U20C G21U C46G], the self-cleavage was determined as 0.55.
The same measure for GGCAGAGCUCAACACAGCGCGACUAAAUGGAUGUGGCCAGACUGCC [U20C G22A A24U G27A C31A U38C]: 0.32; for GGCAGAGCUCAACACAGCGCGGCAAAGUAGCUAUGGCUAGACUACC [U20C G29A G33A G44A]: 0.08.
Consider GGCAGAGCUCAACACAGCGCGGCAAAGUGGCUCUGGCUAGACUGCU [U20C G33C C46U], for which the self-cleavage stood at 0.04.
The same measure for GGCAGAGCUCAACACAGCGCAGCAAAGUGGCUGUGGCUGGACUGCU [U20C G21A A39G C46U]: 0.03; for GGCAGAGCUCAACACAGCGAGGCAAAGUGGCUGUGGCUAGACCGCA [U20A U43C C46A]: 0.02.
Regarding GGCAGAGCUCAACACAGCGCUGCAAAGUGGCUGUGGCUAGACUGAC [U20C G21U C45A], the self-cleavage turned out to be 0.14.
Take GGCAGAGCUCAACACAGCGAGGCAAAUUUGCUGUGGCUAGGCUGCC [U20A G27U G29U A41G]: the self-cleavage turned out to be 0.03.
Turning to GGCAGAGCUCAACACAGCGCGGCAAGGUUCCUGUGGCCAGACUGCC [U20C A26G G29U G30C U38C], the self-cleavage amounted to 0.28.
For the variant GGCAGAGCUCAACACAGCGAAGCAAAGUGGCUGUGGCUCGACUGCC [U20A G21A A39C], the self-cleavage turned out to be 0.01.
Take GGCAGAGCUCAACACAGCGCGGCAAAGUGGCUAUGGCUAAACUGCC [U20C G33A G40A]: the self-cleavage came out at 0.02.
GGCAGAGCUCAACACAGCGCGGAAAAGUUGCUGAGGCUAAACUGCC [U20C C23A G29U U34A G40A]: the self-cleavage turned out to be 0.
In the case of GGCAGAGCUCAACACAGCGAGGCAAAGUGCAUGUGGCUAGCCUGCA [U20A G30C C31A A41C C46A], the self-cleavage is 0.08.
The same measure for GGCAGAGCUCAACACAGCGCAGCAAAGUGGCUCUGACUAGACUGCC [U20C G21A G33C G36A]: 0.03; for GGCAGAGCUCAACACAGCGCGGCAAAUUGACUGUGGCUAGACUGCC [U20C G27U G30A]: 0.79; for GGCAGAGCUCAACACAGCGCGGAAAAGUGACUGUGGCUAGACUGCC [U20C C23A G30A]: 0.05.
The same measure for GGCAGAGCUCAACACAGCGAGGCAAACUGGCUGUGGCUCGACUGCC [U20A G27C A39C]: 0.1; for GGCAGAGCUCAACACAGCGCGGCAAAGUCGCCGUGGCUAGACUGCC [U20C G29C U32C]: 0.08.
The same measure for GGCAGAGCUCAACACAGCGCGGCAAAGUGGCUGUGGUUAGACUUCC [U20C C37U G44U]: 0.07.
On to GGCAGAGCUCAACACAGCGAGGCAAAGGGGCUGUGGCUAGACUGUC [U20A U28G C45U], for which the self-cleavage came out at 0.11.
The same measure for GGCAGAGCUCAACACAGCGAGGCAAAGUUGCUGUGGCUAGUCUGCC [U20A G29U A41U]: 0.08; for GGCAGAGCUCAACACAGCGCGGCUAAGUGGCUGUGGCGAGACUGCC [U20C A24U U38G]: 0.06; for GGCAGAGCUCAACACAGCGCGCCAAAGUGGCAGUGGGUACUGUGCC [U20C G22C U32A C37G G40C A41U C42G]: 0.01.
Take GGCAGAGCUCAACACAGCGAGGCAAAGUGGCAGUGCCUAGAUUGCC [U20A U32A G36C C42U]: the self-cleavage came out at 0.08.
As for GGCAGAGCUCAACACAGCGAAGCAAAUUGGCUGUGGCUAGACUGCC [U20A G21A G27U], the self-cleavage amounted to 0.33.
As to GGCAGAGCUCAACACAGCGCGGCAAAUUGGCUGUGGCAAGACUGCC [U20C G27U U38A], the self-cleavage came to 0.82.
Consider GGCAGAGCUCAACACAGCGAGCGAAAGUGGCUGUGGCUACACUGCC [U20A G22C C23G G40C], for which the self-cleavage was 0.1.
Consider GGCAGAGCUCAACACAGCGCGGCAAAGUGCCUGUGCCUAGACUGCC [U20C G30C G36C], for which the self-cleavage worked out at 0.08.
In the case of GGCAGAGCUCAACACAGCGAGGCAAAGUGACUGUGGCUAUACUGCC [U20A G30A G40U], the self-cleavage stood at 0.02.
For GGCAGAGCUCAACACAGCGCGGCAAAGUGGCUCUGACUAGCCUGCC [U20C G33C G36A A41C], the self-cleavage is 0.05.
As for GGCAGAGCUCAACACAGCGAGGCAAAGUGGCUGUGGCUAGAGUCCC [U20A C42G G44C], the self-cleavage amounted to 0.05.
As to GGCAGAGCUCAACACAGCGAGGCAAAGUGCCUGCGGCUUGACUGCC [U20A G30C U34C A39U], the self-cleavage came to 0.04.
In the case of GGCAGAGCUCAACACAGCGCGGCAAAAUGGCUGUGGCUAAACUUCC [U20C G27A G40A G44U], the self-cleavage was found to be 0.06.
Regarding GGCAGAGCUCAACACAGCGCGGCAACGUGGCUGUGGCUAGUCUGCC [U20C A26C A41U], the self-cleavage worked out at 0.18.
On to GGCAGAGCUCAACACAGCGCCGCAAAGUGGCUGUGGCUAGACUGGA [U20C G21C C45G C46A], for which the self-cleavage was found to be 0.26.
As for GGCAGAGCUCAACACAGCGCGGCAAAAUGGCUGUGGCUAGACUGCG [U20C G27A C46G], the self-cleavage turned out to be 0.14.
The same measure for GGCAGAGCUCAACACAGCGCGGCAAAGUAGCCGUGGCUAGACUGCC [U20C G29A U32C]: 0.13.
The same measure for GGCAGAGCUCAACACAGCGAGACAGAGUGGCUGUGGCUAGACUGCC [U20A G22A A25G]: 0.93; for GGCAGAGCUCAACACAGCGAGGCAAAUUGGCUGUGUCUAGACUGCC [U20A G27U G36U]: 0.03.
The same measure for GGCAGAGCUCAACACAGCGAGGCAAAGUGUCUGUGGUUAGACUGCC [U20A G30U C37U]: 0.04; for GGCAGAGCUCAACACAGCGAGGCAAAGAGGCUGUGGCUAGAAGGCC [U20A U28A C42A U43G]: 0.06; for GGCAGAGCUCAACACAGCGCCGCAAAGUUGCUGUUGCUAGACUGCC [U20C G21C G29U G35U]: 0.02.
Regarding GGCAGAGCUCAACACAGCGCGGCAAAGUAGCUGUGGCUAUACUGCC [U20C G29A G40U], the self-cleavage was determined as 0.2.
The same measure for GGCAGAGCUCAACACAGCGCGGCAAAGUGGCUGUGGCUACACACCC [U20C G40C U43A G44C]: 0.03; for GGCAGAGCUCAACACAGCGAGGCAAAGUGGCUGUGGCUAGACCUCC [U20A U43C G44U]: 0.11.
The same measure for GGCAGAGCUCAACACAGCGCGGCAACGUGCCUGUGGGUAGACCGCC [U20C A26C G30C C37G U43C]: 0.02.

These data come from the RNAGym collection of RNA variant scans (doi:10.7554/elife.90254).
